# Measurements as given in paper PMC6919601, “Identification of Plasmodium dipeptidyl aminopeptidase allosteric inhibitors by high throughput screening” (PLoS ONE, 2019).
# Hit rate of the full screen: of about 110,000 compounds, about 230 (0.21%) showed an effect of 50% or more. The list shows a part of the results.
# Target: DPAP1 (Plasmodium falciparum, UniProt Q8IIJ9)
# Test: primary screen, percent inhibition; read by cleavage of a fluorogenic dipeptide substrate; higher = more effect of the substance
# Parameters: species or system P. falciparum D10 trophozoite lysates; single well
# 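Also: 30 min substrate incubation versus DMSO and 10 µM JCP410 controls.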
# Sequence of DPAP1 (Q8IIJ9 whole entry, looked up): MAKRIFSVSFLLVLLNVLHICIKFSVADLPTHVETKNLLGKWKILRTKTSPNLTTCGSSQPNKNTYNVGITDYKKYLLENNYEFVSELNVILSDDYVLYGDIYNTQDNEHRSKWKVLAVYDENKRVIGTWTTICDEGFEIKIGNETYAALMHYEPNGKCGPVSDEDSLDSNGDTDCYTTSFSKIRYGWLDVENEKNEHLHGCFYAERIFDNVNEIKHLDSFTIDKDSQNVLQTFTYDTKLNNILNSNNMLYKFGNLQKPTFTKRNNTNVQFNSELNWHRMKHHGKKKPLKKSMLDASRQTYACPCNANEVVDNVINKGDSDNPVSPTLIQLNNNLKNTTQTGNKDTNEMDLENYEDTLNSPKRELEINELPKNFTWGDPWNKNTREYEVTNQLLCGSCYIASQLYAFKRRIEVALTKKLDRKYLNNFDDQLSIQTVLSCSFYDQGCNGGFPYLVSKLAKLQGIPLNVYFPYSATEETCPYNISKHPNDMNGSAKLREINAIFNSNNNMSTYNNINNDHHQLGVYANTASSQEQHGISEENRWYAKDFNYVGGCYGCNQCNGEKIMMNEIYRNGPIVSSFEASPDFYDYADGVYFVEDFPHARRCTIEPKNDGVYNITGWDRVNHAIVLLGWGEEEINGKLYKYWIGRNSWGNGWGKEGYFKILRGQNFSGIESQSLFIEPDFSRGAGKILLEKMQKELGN
row,Compound,% Inhibition @ 10 uM [%]
1,CCOC(=O)c1[nH]c2ccccc2c1N,40.4
2,O=C(NCCCn1ccnc1)c1nc(CS(=O)(=O)c2ccccc2)no1,2.77
3,CCOc1ccccc1C(=O)Nc1sc2c(c1C(=O)OC(C)C)CCCC2,6.91
4,CC1C(C#N)=C(N)OC2=C1C(=O)CC(c1ccccc1)C2 (stereo not drawn),-2.69
5,O=C(Nc1ccc(Cl)cc1)c1cccc(C(=O)Nc2ccc(Cl)cc2)c1,0.526
6,Cc1ccc2ncc(C(=O)c3ccccc3)c(O)c2c1,2.08
7,C=CCOc1cccc(C2C(C(=O)c3ccc(C)cc3)=C(O)C(=O)N2Cc2cccnc2)c1 (stereo not drawn),-0.0619
8,O=c1c(Cl)c(NCCN2CCOCC2)cnn1C12CC3CC(CC(C3)C1)C2,3.32
9,Cc1nc(C23CC4CC(CC(C4)C2)C3)co1,-0.0369
10,Cc1cccc(-c2nnc(-c3ccncc3)o2)c1,1.54
11,O=C(Cn1cccc1C(=O)c1ccccc1)NCc1ccc2c(c1)OCO2,-2.25
12,O=[N+]([O-])c1ccc(Cn2nc(-c3ccccc3)nc2-c2ccccc2)cc1,-2.72
13,Cc1ccc(S(=O)(=O)N(CCc2ccccc2)CC(=O)Nc2cccc(C)c2)cc1,1.1
14,CC(CCc1ccccc1)NC(=O)Cn1ncn2c(cc3cc(F)ccc32)c1=O (stereo not drawn),-5.32
15,CCOc1ccc(C2C3=C(O)CCCC3=NC(C)=C2C(=O)Nc2ccccn2)cc1 (stereo not drawn),-2.16
16,CC1CCN(c2c(NCc3ccc(C(=O)N4CCn5c4nc4ccccc45)cc3)c(=O)c2=O)CC1,2.76
17,Cc1ccccc1NC(=O)CN(C1CCCCC1)S(C)(=O)=O,-1.89
18,OCCN(CCO)Cc1ccc(F)c(Br)c1,3.82
19,Cc1cc2oc(C(=O)Nc3nonc3C)c(C)c2cc1Cl,3.51
20,O=C(CCCn1c2ccccc2c2cnnc(O)c21)NCc1ccc2c(c1)OCO2,4.55
21,CCOc1ccc2ccccc2c1CNCCSc1nnnn1C,3.27

row,Compound,% Inhibition @ 10 uM [%]
1,N=C(N)SCCCc1nc2ccccc2[nH]1,2.05
2,O=C(Cn1cc2c(n1)CCCC2)NCc1cccnc1,1.8
3,Cc1cc(C)c(S(=O)(=O)NCC(=O)NCc2ccco2)c(C)c1,-2.51
4,CCOc1cc(C(=O)NCc2nc(-c3ccc(OC)cc3)no2)cc(OCC)c1OCC,-2.99
5,CC1(C)CC(=O)C2=C(C1)NC(=O)CC2c1ccc(Cl)cc1 (stereo not drawn),4.38
6,CCCCCC(=O)Nc1cccc2cccnc12,-2.98
7,Clc1ccccc1OCc1nn2cnnc2s1,3.88
8,CC(C)(C)NC(=O)/C(=C/c1ccc(-c2ccc([N+](=O)[O-])cc2)o1)NC(=O)c1ccccc1,2.41
9,COc1cc(CN2CCN(Cc3cccc(Cl)c3)CC2)cc2c1OCO2,3.1
10,Cc1ccc(S(=O)(=O)NC(Cc2ccccc2)C(=O)O)cc1 (stereo not drawn),0.035
11,COc1ccc(C2=NN(C(=O)c3cc(OC)c(OC)c(OC)c3)C(c3ccc(F)cc3)C2)cc1OC (stereo not drawn),0.131
12,COc1ccc(CN2CCN(C3CC4CCC3C4)CC2)c(OC)c1 (stereo not drawn),-2.87
13,Fc1cccc(F)c1CNCC1NCCc2ccccc21 (stereo not drawn),-6.35
14,CSc1ccc(C2C3=C(O)CCCC3=NC3=C2C(=O)CCC3)cc1 (stereo not drawn),0.673
15,COc1ccc(/C=N/c2nc(-c3ccc(Cl)cc3)c(C)s2)cc1,4.97
16,Cc1nc2ccccc2c2oc(C(=O)NCCc3ccc(Cl)cc3)cc12,1.62
17,O=C(Nc1ccc(F)c(F)c1)c1ccc2c(c1)OCO2,-1.54
18,Cn1ncc2c(NCCc3c[nH]c4ccccc34)ncnc21,-0.587
19,CCCCC(=O)Nc1nn2c(C(C)C)nnc2s1,2.81
20,CC1(C)Cc2c(c(N3CCOCC3)nc3sc(C(=O)c4ccccc4)c(N)c23)CO1,-12.2
21,CCOC(=O)c1cc(-c2ccccc2)n(-c2ccc(C(=O)NCc3ccco3)cc2)c1C,-3.64

row,Compound,% Inhibition @ 10 uM [%]
1,COC(=O)c1ccc(CSc2nnc(CNC(=O)c3c(F)cccc3Cl)o2)o1,-1.58
2,CCc1c(N2CCCCC2)nc2n(c1=O)CCS2,0.347
3,Cn1c(C(=O)NCCCc2ccccc2)cc2oc3ccccc3c21,-0.281
4,COc1ccc(OCC(O)Cn2c(N3CCOCC3)nc3c2c(=O)[nH]c(=O)n3C)cc1 (stereo not drawn),3.34
5,CCC(=O)c1cn(CC(=O)NCC2CCCO2)c2ccccc12 (stereo not drawn),-3.13
6,COc1cccc2cc(-c3nc4cc5ccccc5cc4[nH]3)c(=O)oc12,2.33
7,O=C(O)/C(=C/c1ccccc1F)NC(=O)c1ccccc1,-2.2
8,O=S(=O)(c1ccc(-c2ccc(O)nn2)o1)N1CCC2(CC1)OCCO2,-5.77
9,C=CCn1c(SCCCCC)nc2c1c(=O)n(C)c(=O)n2C,-6.36
10,O=C(Nc1cnc(O)nc1O)c1cccc(Br)c1,0.685
11,N#CCc1ccc(NC(=O)c2ccc(C3SCC(=O)N3CCc3ccccc3)cc2)cc1 (stereo not drawn),-0.884
12,CCS[C@@H]1O[C@H](CO)[C@@H](OCc2ccccc2)[C@H](OCc2ccccc2)[C@H]1OCc1ccccc1,2.17
13,O=C(O)c1ccccc1NS(=O)(=O)c1ccc(F)c(Cl)c1,-1.17
14,Cc1cccc(NS(=O)(=O)c2ccc(NC(=O)CN(c3cccc(F)c3)S(C)(=O)=O)cc2)c1,-0.473
15,COc1ccc(N(CC(=O)Nc2cc(Cl)cc(Cl)c2)S(C)(=O)=O)c(OC)c1,-2.05
16,COc1cccc(S(=O)(=O)NCc2ccc(C(=O)N3CCN(Cc4ccccc4)CC3)cc2)c1,0.795
17,CCCn1c2c(c(O)c(C(=O)Nc3nc(C45CC6CC(CC(C6)C4)C5)cs3)c1=O)CCCC2,2.8
18,COc1ccc(C(=N)NOC(=O)c2ccc(C)c(C)c2)cc1,2.25
19,O=C(C1COc2ccccc2O1)N1CCNCC1 (stereo not drawn),-1.64
20,O=C(C1CCN(S(=O)(=O)c2ccccc2)CC1)N1CCCCCC1,0.147
21,Cc1ccc(C(=O)Nc2ccc(S(=O)(=O)Nc3ncccn3)cc2)o1,2.08
